The record followed here is article PMC10668032.

This is one part of the list. At the low end of the ranking the order means little.

The target in this assay is SIX1 homeodomain (reference allele) (UniProt Q15475). In words: universal protein binding microarray. Particulars: Universal all-10-mer PBM (8x60K, AMADID 030236), 300 nM GST-tagged protein, Alexa Fluor 488 anti-GST; buffer, salt, pH and temperature not stated; high values mean tight binding; most listed sequences are background and not binding sites; double strand, one strand shown.
In the case of GATCACGC, the binding signal turned out to be 0.317 E-score.
As for ACGCGTCT, the binding signal is -0.00994 E-score.
For the sequence GGGCTTTA, the binding signal was -0.29 E-score.
The figure for ACTGGAAA is -0.269 E-score; for GATGTTGA it is -0.0757 E-score.
The value for ACAGACCG was 0.0387 E-score; that for AATTCCCA was -0.0997 E-score.
The figure for GCAGAACC is 0.0331 E-score.
Consider GCGCACTA, for which the binding signal is -0.15 E-score.
The figure for ACGTAGGG is -0.0364 E-score; for AACATAAC it is 0.0137 E-score; for TGAAACCA it is 0.163 E-score.
The figure for CATGGGCC is -0.347 E-score.
For ACAAGCTA, the binding signal is -0.0481 E-score.
The value for GTGTAGAA was 0.0034 E-score; that for AACTACGC was -0.2 E-score; that for TGTAAAAA was -0.282 E-score.
Consider GTTGTTTA, for which the binding signal was -0.0414 E-score.
Regarding CGCGGGGC, the binding signal was -0.0535 E-score.
The figure for AAGCCCCC is -0.225 E-score.
Regarding ACACGCGA, the binding signal came to 0.125 E-score.
The figure for CCCTCTCA is 0.17 E-score; for GCCTCGTA it is -0.0546 E-score; for GCCGCCAC it is -0.259 E-score.
The figure for CAGCTCCC is -0.0381 E-score; for CCGTTTCA it is -0.0155 E-score; for AATTTCCA it is -0.312 E-score.
With GCTTTTTA, the binding signal was -0.182 E-score.
The value for ACCCGCGT was -0.104 E-score; that for CGATGGTA was -0.121 E-score; that for ACGGAAGT was -0.13 E-score.
Turning to GTGGCTAA, the binding signal was -0.142 E-score.
The value for ATTGAGTG was 0.0213 E-score; that for AGTTCATG was -0.0781 E-score.
On to ATTATGCG, for which the binding signal amounted to 0.242 E-score.
The figure for AATCCGAA is 0.00788 E-score.
The figure for GACGCACC is -0.203 E-score; for AACTTTAT it is -0.145 E-score; for CACACAAC it is -0.244 E-score.
The figure for CCCTTATC is 0.0801 E-score.
With ACTTGAAT, the binding signal was determined as 0.0267 E-score.
The figure for AATCCGGA is 0.276 E-score; for ACCTTTAT it is -0.117 E-score.
The value for CAGTCTGA was -0.0651 E-score; that for CTTTAAAG was -0.18 E-score.
The figure for CCGGCATC is 0.201 E-score; for ACTCACAT it is -0.091 E-score.
Turning to GGGGTAAC, the binding signal stood at 0.126 E-score.
The figure for TAATCTAA is -0.0279 E-score.
The figure for CTGGAAGC is -0.147 E-score; for AACACCCG it is 0.304 E-score.
The figure for AGTGTATC is 0.43 E-score; for CATACAAA it is -0.0204 E-score.
GCGGCCAA: the binding signal was -0.142 E-score.
The figure for ACATTAAC is 0.0223 E-score; for ATAATTCA it is -0.00119 E-score.
The figure for CCTAATAG is -0.00866 E-score.
The value for AAGTGTGT was -0.0803 E-score; that for TAGACAAA was -0.167 E-score.
For AATGTCCA, the binding signal was -0.282 E-score.
The value for CTAACATC was -0.0863 E-score; that for AAAATAAT was 0.0704 E-score.
The value for AACCCTAC was -0.0921 E-score; that for CCGTGAGG was -0.142 E-score; that for ACGCGTCG was -0.0524 E-score.
As for ACTGGGCC, the binding signal was -0.323 E-score.
The figure for ATGTCGAC is -0.0647 E-score; for CATAATGC it is -0.0538 E-score; for AACGTTTA it is -0.228 E-score.
For the sequence AATGCACT, the binding signal is -0.133 E-score.
The value for ACACCCTG was 0.321 E-score; that for GTCTGCAC was -0.209 E-score; that for GGCCGGCC was -0.346 E-score.
The value for CTCTGCGC was -0.0616 E-score; that for TCGCACAA was -0.103 E-score; that for CACTATCA was 0.276 E-score.
In the case of TCATTGGA, the binding signal worked out at 0.00481 E-score.
In the case of ATCATATC, the binding signal is 0.425 E-score.
With GAAAGGCC, the binding signal was determined as 0.0234 E-score.
GTTAGGAA: the binding signal is -0.0998 E-score.
The figure for AACCAAAC is -0.336 E-score; for ACCCCGGG it is 0.118 E-score; for AATACCCA it is 0.29 E-score.
The figure for CTAACCGC is 0.00498 E-score; for GGATTGAC it is 0.0149 E-score; for TCGTGCAA it is 0.0103 E-score.
The value for GAATGGAA was -0.173 E-score; that for CACCATCA was -0.0879 E-score; that for CACACACC was 0.0747 E-score.
Take ATTCGCCA: the binding signal came to 0.0239 E-score.
The value for CTGGCCGC was -0.288 E-score; that for AGATATAA was 0.261 E-score.
As to GGTCAGTA, the binding signal is -0.0787 E-score.
With GACGTGAA, the binding signal was -0.274 E-score.
The value for AAGCGGTA was 0.00751 E-score; that for CTAAAGTA was -0.00647 E-score.
The value for AACCCTCG was -0.00321 E-score.
As for AAATACTC, the binding signal is 0.0962 E-score.
The value for CCCTCGAA was -0.0953 E-score.
The value for AGGAAGGA was -0.132 E-score.
Consider AATCCGGC, for which the binding signal was 0.228 E-score.
The figure for CGCAATAG is -0.0313 E-score; for CTTAAAAC it is -0.169 E-score.
The value for AATACCAT was 0.296 E-score.
The value for ACACCCCA was 0.365 E-score; that for CACGCTCG was -0.24 E-score.
On to ACCCGCAA, for which the binding signal came out at 0.0386 E-score.
The value for AAAAAATG was -0.255 E-score; that for GGGATAAA was 0.212 E-score.
Turning to AAAACTTG, the binding signal is -0.193 E-score.
